Measured values: PubChem BioAssay AID463173 (ICCB-Longwood Screening Facility, Harvard Medical School, 2010)
The campaign covered roughly 52,000 compounds. About 1,700 (3.3%) were called active. No stated cut-off is given here; in the data, active means survival mostly below about 52% (no sharp cut-off); inactive means mostly above about 56%. The list shows a part of the results.

test system: Wild type; test: growth inhibition of S. aureus wild type versus tarO mutant, primary screen, teichoic acid synthesis inhibitors, RN4220, OD600 (AID 463173); details: S. aureus RN4220 wild type/DeltatarO growth, OD600, 18 h, hits give low values, screened at 18.75 µg/mL (by protocol)

Row | Structure (SMILES) | survival
1 | CCOc1nc(NCCN2CCOCC2)nc(NC(C)C)n1 | inactive: 103%
2 | COc1ccc(N2CCN(C(CNC(=O)c3ccc(C)cc3)c3ccc4c(c3)OCO4)CC2)cc1 (stereo not drawn) | inactive: 80%
3 | Cc1ccc(NC(=O)Cn2cc(S(=O)(=O)N3CCN(c4ccccc4F)CC3)c3ccccc3c2=O)cc1F | inactive: 87%
4 | Cc1csc2nc(COc3ccc(NC(=O)COc4ccc(F)cc4)cc3)cc(=O)n12 | inactive: 84%
5 | CCOc1ccc(/C=C/c2nc(C#N)c(N(C)C)o2)cc1 | inactive: 116%
6 | CCOc1ccccc1CNC(=O)c1nn(C)c2c1CS(=O)(=O)c1ccccc1-2 | inactive: 103%
7 | CC(C)c1ccc(CNc2nc(-c3ccco3)nn2S(=O)(=O)c2ccccc2)cc1 | inactive: 88%
8 | Oc1ccc(-c2csc(-c3ccccc3)n2)cc1O | inactive: 94%
9 | Cc1cc2c(cc1NC(=O)c1ccc(C(C)(C)C)cc1)n(C)c(=O)c(=O)n2C | inactive: 56%
10 | O=C1CC(c2ccccc2)NC(=S)N1 (stereo not drawn) | inactive: 110%
11 | COc1ccc(NC(=O)c2sc3nc[nH]c(=O)c3c2C)cc1 | inactive: 84%
12 | Cc1ccc(-c2cc(C(=O)Oc3ccccc3)c3cccc(C)c3n2)cc1 | active: 13%
13 | Cc1sc(-c2cc3ccccc3oc2=O)nc1-c1ccc(Cl)cc1 | inactive: 74%
14 | COC(=O)c1cc(S(=O)(=O)N2CCN(c3ccc(C)cc3C)CC2)cn1C | inactive: 65%
15 | CC(C)Oc1ccc(CNC(=O)C2COc3ccccc3C2)cc1 (stereo not drawn) | inactive: 49%
16 | CSc1ccc(NC(=O)C2CC(O)CN2C(=O)Nc2ccccc2)cc1 (stereo not drawn) | inactive: 113%
17 | O=C(CN1C(=O)COc2ccc(S(=O)(=O)N3CCCC3)cc21)N1CCN(c2ccccc2F)CC1 | inactive: 77%
18 | Cc1ccccc1-c1nc(CS(=O)CC(=O)NCCc2ccc(Cl)cc2)c(C)o1 (stereo not drawn) | inactive: 128%
19 | O=C1CC(c2ccccc2)Cc2[nH]c(=O)c(-c3nc(-c4ccc(F)cc4)cs3)cc21 (stereo not drawn) | inactive: 135%
20 | CCCCCCOc1ccc(-c2nc3ccc(Br)cc3c(=O)o2)cc1 | inactive: 71%
21 | COC(=O)c1ccccc1NC(=O)Nc1cccc(OCc2cc(=O)n3cccc(C)c3n2)c1 | inactive: 159%
22 | CS(=O)(=O)N1CCN(CC(=O)NC2CCCCC2)CC1 | inactive: 108%

Row | Structure (SMILES) | survival
23 | CCOC(=O)c1cnc2ccc(OCC)cc2c1N1CCN(c2cccc(Cl)c2)CC1 | active: -9%
24 | O=C1CN(C(=O)C2CCCCC2)C(c2ccccc2)c2cc(F)ccc2N1 (stereo not drawn) | inactive: 73%
25 | CCOc1ccc(C2c3c(oc4ccc(C)cc4c3=O)C(=O)N2c2nc(C)c(C)s2)cc1OC (stereo not drawn) | inactive: 142%
26 | COc1ccc(-c2noc(-c3ccc(N4CCCCC4)c([N+](=O)[O-])c3)n2)cc1 | inactive: 75%
27 | COc1cccc(C2=NS(=O)(=O)N(C)C(C(=O)Nc3cccc(O)c3)=C2)c1 | inactive: 85%
28 | CCn1cc(C(=O)NCCCN(CC(C)C)CC(C)C)c(=O)c2cc(S(=O)(=O)N3CCc4ccccc4C3)ccc21 | inactive: 80%
29 | Cc1ccc(-c2nnc(SCC(=O)NCCC(C)C)nc2-c2ccc(C)cc2)cc1 | inactive: 126%
30 | Cc1ccc(CCNC(=O)CN2C(=O)COc3ccc(S(=O)(=O)N4CCC(C)CC4)cc32)cc1 | inactive: 91%
31 | CCN1CCN(C(c2cccc(Cl)c2)c2c(O)cc(C)n(CCOC)c2=O)CC1 (stereo not drawn) | inactive: 66%
32 | Cc1cc(OCC(=O)NCC2(N(C)C)CCCCC2)cc(C)c1Cl | inactive: 88%
33 | COc1ccc(CC(=O)Nc2ccc(-c3nc4ccccc4s3)cc2Cl)cc1 | inactive: 88%
34 | Cc1cc(NC(=O)C2CCCN(S(=O)(=O)c3ccc(Br)s3)C2)ccc1Br (stereo not drawn) | inactive: 54%
35 | COc1ccc(N2CCN(C(CNC(=O)C(=O)NCc3ccc(F)cc3)c3cccnc3)CC2)cc1 (stereo not drawn) | inactive: 90%
36 | CCc1ccc(NC(=O)N(Cc2c[nH]c3ccccc23)C2CCCCCC2)cc1 | inactive: 127%
37 | O=C(NCc1ccccc1)C(=O)NCC(c1ccco1)S(=O)(=O)c1ccccc1 (stereo not drawn) | inactive: 67%
38 | Cc1cc2nn(-c3ccc(F)cc3)nc2cc1NC(=O)c1cc(Cl)ccc1Cl | inactive: 127%
39 | CCCCN1C(=O)C(O)(c2c(C)[nH]c3ccccc23)c2cc(Br)ccc21 (stereo not drawn) | inactive: 36%
40 | CCCN(CCC)c1nn2c(=O)c(C(=O)NCc3cccc(OC)c3)cnc2s1 | inactive: 72%
41 | Cc1cc(NC(=O)C2C3C(=O)N(c4ccccc4Cl)C(C(=O)NC(C)(C)C)C34C=CC2(C)O4)no1 (stereo not drawn) | inactive: 115%
42 | CCN(CC)CCCN1C(=O)C2C3C=CC(C3)C2C1=O (stereo not drawn) | inactive: 105%
43 | COc1ccc(Cl)cc1NC(=O)CSc1nnc(C)n2c1cc1occc12 | inactive: 65%
44 | CCOc1ccc(CCNC(=O)CCc2c(C)nc3c4c(C)cc(C)nc4nn3c2C)cc1 | inactive: 87%

Row | Structure (SMILES) | survival
45 | COc1ccccc1C1C=C(c2ccc(F)cc2)Nc2nc(-c3ccc(Cl)cc3)nn21 (stereo not drawn) | inactive: 84%
46 | CCN(CC)S(=O)(=O)c1ccc2c(c1)N(CC(=O)NCCCN1CCN(c3ccccc3F)CC1)C(=O)CO2 | inactive: 77%
47 | Cc1ccc2[nH]c(=O)c3cc(C(=O)N4CCN(c5ccccc5)CC4)sc3c2c1 | inactive: 71%
48 | COc1cccc(NC(=O)NCc2ccc3c(c2)CCN3C(=O)c2ccccc2)c1 | inactive: 64%
49 | Cc1cccc(C(=O)Nc2sc3c(c2C(=O)NCc2ccco2)CCCC3)c1 | inactive: 100%
50 | O=C(/C=C/c1ccccc1)Nc1ccccc1N1CCN(c2ccccc2)CC1 | inactive: 106%
51 | CC(C)c1ccc(C2N3CC4(C)CN2CC(c2ccccc2)(C3)C4=O)cc1 (stereo not drawn) | inactive: 97%
52 | CCc1ccc(NC(=O)c2cc(C(C)=O)n3ccccc23)cc1 | inactive: 51%
53 | CCOC(=O)c1scc(-c2ccccc2)c1S(=O)(=O)Nc1ccccc1F | inactive: 129%
54 | Clc1cccc(N2CCN(c3ncnc4c3nc3n4CCCCC3)CC2)c1 | active: 3%
55 | CCc1nn(-c2ccccc2)c2nc(-c3ccccc3OC)c3cc(OC)c(OC)cc3c12 | inactive: 113%
56 | CCCc1nn2c(=O)cc(COC(=O)c3cccc(NC(=O)COc4ccc(F)cc4)c3)nc2s1 | inactive: 80%
57 | O=C(Cn1c(=O)oc2cc(S(=O)(=O)N3CCCCC3)ccc21)Nc1cccc(Cl)c1 | inactive: 98%
58 | CCCCN1C(=O)c2[nH]nc(-c3ccccc3O)c2C1c1cccc(OCc2ccccc2)c1 (stereo not drawn) | inactive: 52%
59 | Cc1nc(-c2ccc(Cl)cc2)sc1CCNC(=O)C(=O)Nc1ccc(F)cc1F | inactive: 102%
60 | Cc1cc(C)c(Cn2c3ccccc3c3cnn(CC(=O)NC4CCC(C)CC4)c(=O)c32)c(C)c1 (stereo not drawn) | inactive: 69%
61 | O=C(O)c1cc(NC2(c3ccccc3)C(=O)c3ccccc3C2=O)ccc1Cl | inactive: 68%
62 | Cc1ccccc1NC(=O)c1ccc(F)c(S(=O)(=O)N(C)Cc2ccccc2)c1 | inactive: 66%
63 | Cc1ccc(Cn2c(C(=O)O)c(CNCc3ccccc3Cl)c3ccc(C)cc32)cc1 | inactive: 83%
64 | CCc1ccc(NC(=O)CN2CCN(Cc3ccccc3)S2(=O)=O)cc1 | inactive: 54%
65 | CCOC(=O)C1CCN(c2ncnc3c2c(-c2ccccc2)cn3-c2cccc(C)c2)CC1 | inactive: 67%
66 | Cc1oc2c(c(C)cc3oc(=O)c(CC(=O)NCCc4ccccc4F)c(C)c32)c1C | inactive: 88%

Row | Structure (SMILES) | survival
67 | CCOCc1cn(CC(=O)c2ccc(OC(C)=O)c(OC(C)=O)c2)c(C)nc1=N | inactive: 108%
68 | Cc1cccc(NC(=O)CCCn2c(C)c3cnn(-c4ccccc4)c(=O)c3c2C)c1C | inactive: 77%
69 | Cc1ccccc1-n1c(SCC(=O)Nc2ccc(Cl)cc2F)nnc1-c1cc2occc2n1C | inactive: 92%
70 | COc1cccc(NC(=O)C(C#N)Cc2cccs2)c1 (stereo not drawn) | inactive: 98%
71 | Cc1ccc(C)n1-c1nnc(N2CCCC(C(=O)NCc3ccc(Cl)cc3)C2)s1 (stereo not drawn) | inactive: 85%
72 | Cc1ccc(OCC(=O)Nc2ccc(S(=O)(=O)Nc3cc(C)nc(C)n3)cc2)c(Br)c1 | inactive: 108%
73 | Cc1ccc(CN2CCc3nc(N4CCN(c5ncccn5)CC4)ncc3C2)cc1 | inactive: 128%
74 | COc1ccc(C2=CC(c3ccc(F)cc3)n3ncc(C(=O)Nc4ccc(C)cc4)c3N2)cc1 (stereo not drawn) | inactive: 124%
75 | Cc1ccc(-c2nc3cc(C(C)C)ccc3o2)cc1NC(=O)c1cc2ccccc2o1 | active: 11%
76 | CCc1ccc(CNC(=O)c2sc3ncccc3c2-n2c(C)ccc2C)cc1 | active: -3%
77 | CCOc1ccccc1CNS(=O)(=O)c1ccc2c(c1)CCCN2C(C)=O | inactive: 88%
78 | O=C(Cn1ccn(-c2ccc(F)c(F)c2)c(=O)c1=O)Nc1ccccc1F | inactive: 83%
79 | Cc1ccc(C(=O)N2CCC(C(=O)O)CC2)cc1 | inactive: 95%
80 | Cc1ccc(N(CC(=O)NCCc2ccc(Cl)cc2)S(=O)(=O)N(C)C)cc1 | inactive: 119%
81 | COc1cccc(NC(=O)CSc2nc3c(oc4ccccc43)c(=O)n2Cc2ccco2)c1 | inactive: 70%
82 | CCCNC(=O)c1c(O)c2ccccc2n(C)c1=O | inactive: 95%
83 | O=C(CCSc1nc(-c2ccco2)cc(C(F)(F)F)n1)Nc1cccc(O)c1 | inactive: 124%
84 | O=C(Nc1ccc2oc(-c3cccnc3)nc2c1)c1cccc(Br)c1 | inactive: 75%
85 | COc1cc(-c2noc(CN3CCN(c4ccccc4)CC3)n2)cc(OC)c1OC | inactive: 91%
86 | CC(C)CCNC(=O)CCCN1C(=O)c2ccccc2Sc2ncccc21 | inactive: 85%
87 | CCc1ccc(C2c3c(-c4ccccc4O)n[nH]c3C(=O)N2Cc2ccncc2)cc1 (stereo not drawn) | inactive: 84%
88 | COc1cc(OC)cc(C(=O)Oc2c(Sc3ccccc3)c(C)nn2C(C)(C)C)c1 | inactive: 50%
